In the supplement of paper PMC8728848:
The other results are listed elsewhere or left out.

What was measured:
Assay in all cases: glycan array binding signal (z-score within array); higher = stronger binding
Settings in all cases: glycan notation: IUPAC condensed, linker removed
Neu5Ac(a2-8)Neu5Ac = molecular target: Neu5Ac(a2-8)Neu5Ac
Procedure, shortened: (§1)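 From the Consortium for Functional Glycomics database, 3228 arrays were curated, keeping only those whose protein sequence was available. Binding is given as a within-array Z-score averaged across arrays sharing a protein sequence and across linkers. Negative Z-scores can be read as non-binding.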

[1] = molecular target: Neu5Ac(a2-8)Neu5Ac(a2-3)Gal(b1-3)GalNAc(b1-4)[Neu5Ac(a2-3)]Gal(b1-4)Glc
Procedure, shortened: as §1

[2] = molecular target: Neu5Ac(a2-8)Neu5Ac(a2-3)Gal(b1-3)GalNAc(b1-4)[Neu5Ac(a2-8)Neu5Ac(a2-3)]Gal(b1-4)Glc
Procedure, shortened: as §1

[3] = molecular target: Neu5Ac(a2-8)Neu5Ac(a2-3)Gal(b1-4)Glc
Procedure, shortened: as §1

[4] = molecular target: Neu5Ac(a2-8)Neu5Ac(a2-3)Gal(b1-4)GlcNAc
Procedure, shortened: as §1

[5] = molecular target: Neu5Ac(a2-8)Neu5Ac(a2-3)[Gal(b1-3)GalNAc(b1-4)]Gal(b1-4)Glc
Procedure, shortened: as §1

[6] = molecular target: Neu5Ac(a2-8)Neu5Ac(a2-3)[GalNAc(b1-4)]Gal(b1-4)Glc
Procedure, shortened: as §1

[7] = molecular target: Neu5Ac(a2-8)Neu5Ac(a2-8)Neu5Ac
Procedure, shortened: as §1

[8] = molecular target: Neu5Ac(a2-8)Neu5Ac(a2-8)Neu5Ac(a2-3)Gal(b1-4)Glc
Procedure, shortened: as §1

[9] = molecular target: Neu5Ac(a2-8)Neu5Ac(a2-8)Neu5Ac(a2-3)[Gal(b1-3)GalNAc(b1-4)]Gal(b1-4)Glc
Procedure, shortened: as §1

[10] = molecular target: Neu5Ac(a2-8)Neu5Ac(a2-8)Neu5Ac(a2-3)[GalNAc(b1-4)]Gal(b1-4)Glc
Procedure, shortened: as §1

[11] = molecular target: Neu5Ac(a2-8)Neu5Ac(a2-8)Neu5Ac(a2-8)Neu5Ac(a2-3)[GalNAc(b1-4)]Gal(b1-4)Glc
Procedure, shortened: as §1

[12] = molecular target: Neu5Ac(a2-8)Neu5Gc(a2-3)Gal(b1-4)GlcNAc
Procedure, shortened: as §1

[13] = molecular target: Neu5Ac(b2-6)Gal(b1-4)GlcNAc
Procedure, shortened: as §1

Neu5Ac(b2-6)GalNAc = molecular target: Neu5Ac(b2-6)GalNAc
Procedure, shortened: as §1

[14] = molecular target: Neu5Ac9Ac(a2-3)Gal(b1-3)GlcNAc
Procedure, shortened: as §1

[15] = molecular target: Neu5Ac9Ac(a2-3)Gal(b1-4)GlcNAc
Procedure, shortened: as §1

[16] = molecular target: Neu5Ac9Ac(a2-6)Gal(b1-4)GlcNAc
Procedure, shortened: as §1

[17] = molecular target: Neu5Gc(a2-3)Gal(b1-3)GlcNAc
Procedure, shortened: as §1

[18] = molecular target: Neu5Gc(a2-3)Gal(b1-3)[Fuc(a1-4)]GlcNAc
Procedure, shortened: as §1

Neu5Gc(a2-3)Gal(b1-4)Glc = molecular target: Neu5Gc(a2-3)Gal(b1-4)Glc
Procedure, shortened: as §1

[19] = molecular target: Neu5Gc(a2-3)Gal(b1-4)GlcNAc
Procedure, shortened: as §1

[20] = molecular target: Neu5Gc(a2-3)Gal(b1-4)GlcNAc(b1-3)Gal(b1-4)GlcNAc(b1-2)Man(a1-3)[Neu5Gc(a2-3)Gal(b1-4)GlcNAc(b1-3)Gal(b1-4)GlcNAc(b1-2)Man(a1-6)]Man(b1-4)GlcNAc(b1-4)GlcNAc
Procedure, shortened: as §1

[21] = molecular target: Neu5Gc(a2-3)Gal(b1-4)[Fuc(a1-3)]GlcNAc
Procedure, shortened: as §1

[22] = molecular target: Neu5Gc(a2-6)Gal(b1-4)GlcNAc
Procedure, shortened: as §1

Neu5Gc(a2-6)GalNAc = molecular target: Neu5Gc(a2-6)GalNAc
Procedure, shortened: as §1

[23] = molecular target: Neu5Gc(a2-8)Neu5Ac(a2-3)Gal(b1-4)GlcNAc
Procedure, shortened: as §1

[24] = molecular target: Neu5Gc(a2-8)Neu5Gc(a2-3)Gal(b1-4)GlcNAc
Procedure, shortened: as §1

[25] = molecular target: Neu5Gc(a2-8)Neu5Gc(a2-3)Gal(b1-4)GlcNAc(b1-3)Gal(b1-4)GlcNAc
Procedure, shortened: as §1

[26] = molecular target: Neu5Gc(a2-8)Neu5Gc(a2-6)Gal(b1-4)GlcNAc
Procedure, shortened: as §1

[27] = molecular target: Neu5Gc(b2-6)Gal(b1-4)GlcNAc
Procedure, shortened: as §1

B1: PX14343H-pdi-506-26-506 (Parabacteroides distasonis) (protein)
chain: QPTGTMTTDSKLTSKESALALTNSAYLKNTVFNKMTPGWGCNTILLLEYMTGKATSENSQSNYKDFQDLLVSDRSLYIEDWWQDCYAGIANCNLALQKLGEFENLDASLVNGYMAEVKFMRALYYFYLVRIFGDVPKITTVQSELGELQVSRAPVKEIYDEIIIPDLLEAEQSDLAFSDHTGRVSMGAVKALLADVYLTYAGYPLQGGKSYYAESAKRSLEVIKSNEYTLFTDYESLRLPSQNNKGEFIYQVQFSLNKRHNESVRIFLPSRSGISAYDLEYGSLIPTKEFVESFEKGDKRTEEKQYFFTNYKGHPSKFSPGAAELEFMDLNGYYIYKFFDQVAVDNTAKSDLNWSVYRYTDVLLMYAEAQVNADGTPNQQSIDIVNQIRGRAGLAPFKQTNASAFLEEVWDQRYFDLCYENKMWFDMLRTRKIRDDKSGEYVDFIGYKTNWGKVYTETQLLFPIPLSERQANPNLTQNQGY
Q: Which results are given for B1?
A: glycan array binding signal (z-score) (Neu5Ac(a2-8)Neu5Ac): -0.264; glycan array binding signal (z-score) [1]: -0.227; glycan array binding signal (z-score) [2]: -0.438; glycan array binding signal (z-score) [3]: -0.39; glycan array binding signal (z-score) [4]: -0.418; glycan array binding signal (z-score) [5]: 0.228; glycan array binding signal (z-score) [6]: -0.202; glycan array binding signal (z-score) [7]: -0.249; glycan array binding signal (z-score) [8]: -0.373; glycan array binding signal (z-score) [9]: -0.24; glycan array binding signal (z-score) [10]: 0.165; glycan array binding signal (z-score) [11]: 1.64; glycan array binding signal (z-score) [12]: 2.83; glycan array binding signal (z-score) [13]: -0.315; glycan array binding signal (z-score) (Neu5Ac(b2-6)GalNAc): 0.072; glycan array binding signal (z-score) [14]: -0.407; glycan array binding signal (z-score) [15]: -0.452; glycan array binding signal (z-score) [16]: -0.404; glycan array binding signal (z-score) [17]: -0.48; glycan array binding signal (z-score) [18]: -0.415; glycan array binding signal (z-score) (Neu5Gc(a2-3)Gal(b1-4)Glc): -0.422; glycan array binding signal (z-score) [19]: -0.388; glycan array binding signal (z-score) [20]: -0.486; glycan array binding signal (z-score) [21]: -0.382; glycan array binding signal (z-score) [22]: -0.19; glycan array binding signal (z-score) (Neu5Gc(a2-6)GalNAc): -0.227; glycan array binding signal (z-score) [23]: -0.357; glycan array binding signal (z-score) [24]: -0.467; glycan array binding signal (z-score) [25]: -0.308; glycan array binding signal (z-score) [26]: -0.346; glycan array binding signal (z-score) [27]: 1.27
